In article PMC9911399, “Two distinct binding modes provide the RNA-binding protein RbFox with extraordinary sequence specificity”:
Substitutions are numbered along the chain they refer to; changes in the protein carry UniProt numbers. Some of the results follow.

T1: RBFOX1 RRM (Homo sapiens, UniProt Q9NWB1 109-208)
T1 sequence: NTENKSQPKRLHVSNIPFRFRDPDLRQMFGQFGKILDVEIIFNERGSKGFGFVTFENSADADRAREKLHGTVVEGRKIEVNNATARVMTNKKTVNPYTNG

B1: GGAAUUG (DNA:RNA)
RNA: GGGAGACCGGAAUUCAGAUUGUCCGGAAUUGUUAAAUCCCGUCGUAGCCACCA
DNA 1: CAATCTGAATTCCGGTCTCCC
DNA 2: TGGTGGCTACGACGGGATT
B2: CGCCAUG (DNA:RNA)
RNA: B1 RNA with G25C, A27C, A28C, U29A
DNA 1: CAATCTGAATTCCGGTCTCCC
DNA 2: TGGTGGCTACGACGGGATT
B3: UUGACAG (DNA:RNA)
RNA: B1 RNA with G25U, G26U, A27G, U29C, U30A
DNA 1: CAATCTGAATTCCGGTCTCCC
DNA 2: TGGTGGCTACGACGGGATT
B4: GAUUUCG (DNA:RNA)
RNA: B1 RNA with G26A, A27U, A28U, U30C
DNA 1: CAATCTGAATTCCGGTCTCCC
DNA 2: TGGTGGCTACGACGGGATT
B5: UACGGUC (DNA:RNA)
RNA: B1 RNA with G25U, G26A, A27C, A28G, U29G, G31C
DNA 1: CAATCTGAATTCCGGTCTCCC
DNA 2: TGGTGGCTACGACGGGATT
B6: GGUAACU (DNA:RNA)
RNA: B1 RNA with A27U, U29A, U30C, G31U
DNA 1: CAATCTGAATTCCGGTCTCCC
DNA 2: TGGTGGCTACGACGGGATT
B7: AGUUUGA (DNA:RNA)
RNA: B1 RNA with G25A, A27U, A28U, U30G, G31A
DNA 1: CAATCTGAATTCCGGTCTCCC
DNA 2: TGGTGGCTACGACGGGATT
B8: AUUUAGU (DNA:RNA)
RNA: GGGAGACCGGAAUUCAGAUUGUCCAUUUAGUUUAAAUCCCGUCGUAGCCACCA
DNA 1: CAATCTGAATTCCGGTCTCCC
DNA 2: TGGTGGCTACGACGGGATT
B9: UUAACCC (DNA:RNA)
RNA: B1 RNA with G25U, G26U, U29C, U30C, G31C
DNA 1: CAATCTGAATTCCGGTCTCCC
DNA 2: TGGTGGCTACGACGGGATT
B10: GCCAACG (DNA:RNA)
RNA: B1 RNA with G26C, A27C, U29A, U30C
DNA 1: CAATCTGAATTCCGGTCTCCC
DNA 2: TGGTGGCTACGACGGGATT
B11: GGCUCAC (DNA:RNA)
RNA: B1 RNA with A27C, A28U, U29C, U30A, G31C
DNA 1: CAATCTGAATTCCGGTCTCCC
DNA 2: TGGTGGCTACGACGGGATT
B12: UCAUCCU (DNA:RNA)
RNA: B8 RNA with A25U, U26C, U27A, A29C, G30C
DNA 1: CAATCTGAATTCCGGTCTCCC
DNA 2: TGGTGGCTACGACGGGATT
B13: CCUUAAC (DNA:RNA)
RNA: B8 RNA with A25C, U26C, G30A, U31C
DNA 1: CAATCTGAATTCCGGTCTCCC
DNA 2: TGGTGGCTACGACGGGATT
B14: CGAAGGA (DNA:RNA)
RNA: B1 RNA with G25C, U29G, U30G, G31A
DNA 1: CAATCTGAATTCCGGTCTCCC
DNA 2: TGGTGGCTACGACGGGATT
B15: AACUGGA (DNA:RNA)
RNA: B8 RNA with U26A, U27C, A29G, U31A
DNA 1: CAATCTGAATTCCGGTCTCCC
DNA 2: TGGTGGCTACGACGGGATT
B16: AUUGAAG (DNA:RNA)
RNA: B8 RNA with U28G, G30A, U31G
DNA 1: CAATCTGAATTCCGGTCTCCC
DNA 2: TGGTGGCTACGACGGGATT
B17: CCGGCAC (DNA:RNA)
RNA: GGGAGACCGGAAUUCAGAUUGUCCCCGGCACUUAAAUCCCGUCGUAGCCACCA
DNA 1: CAATCTGAATTCCGGTCTCCC
DNA 2: TGGTGGCTACGACGGGATT
B18: CUUGUCA (DNA:RNA)
RNA: B8 RNA with A25C, U28G, A29U, G30C, U31A
DNA 1: CAATCTGAATTCCGGTCTCCC
DNA 2: TGGTGGCTACGACGGGATT
B19: CCGUCUG (DNA:RNA)
RNA: B17 RNA with G28U, A30U, C31G
DNA 1: CAATCTGAATTCCGGTCTCCC
DNA 2: TGGTGGCTACGACGGGATT
B20: UUAUGAG (DNA:RNA)
RNA: B8 RNA with A25U, U27A, A29G, G30A, U31G
DNA 1: CAATCTGAATTCCGGTCTCCC
DNA 2: TGGTGGCTACGACGGGATT
B21: AGCCUAC (DNA:RNA)
RNA: B17 RNA with C25A, C26G, G27C, G28C, C29U
DNA 1: CAATCTGAATTCCGGTCTCCC
DNA 2: TGGTGGCTACGACGGGATT
B22: AAACUGA (DNA:RNA)
RNA: B8 RNA with U26A, U27A, U28C, A29U, U31A
DNA 1: CAATCTGAATTCCGGTCTCCC
DNA 2: TGGTGGCTACGACGGGATT
B23: UAAUGGC (DNA:RNA)
RNA: B8 RNA with A25U, U26A, U27A, A29G, U31C
DNA 1: CAATCTGAATTCCGGTCTCCC
DNA 2: TGGTGGCTACGACGGGATT
B24: GUACCCG (DNA:RNA)
RNA: B1 RNA with G26U, A28C, U29C, U30C
DNA 1: CAATCTGAATTCCGGTCTCCC
DNA 2: TGGTGGCTACGACGGGATT
B25: AACAAUU (DNA:RNA)
RNA: B8 RNA with U26A, U27C, U28A, G30U
DNA 1: CAATCTGAATTCCGGTCTCCC
DNA 2: TGGTGGCTACGACGGGATT
B26: GAAGUGU (DNA:RNA)
RNA: B1 RNA with G26A, A28G, U30G, G31U
DNA 1: CAATCTGAATTCCGGTCTCCC
DNA 2: TGGTGGCTACGACGGGATT
B27: GUCACGG (DNA:RNA)
RNA: B1 RNA with G26U, A27C, U29C, U30G
DNA 1: CAATCTGAATTCCGGTCTCCC
DNA 2: TGGTGGCTACGACGGGATT
B28: AACCAUA (DNA:RNA)
RNA: B8 RNA with U26A, U27C, U28C, G30U, U31A
DNA 1: CAATCTGAATTCCGGTCTCCC
DNA 2: TGGTGGCTACGACGGGATT
B29: UAGUUGA (DNA:RNA)
RNA: B8 RNA with A25U, U26A, U27G, A29U, U31A
DNA 1: CAATCTGAATTCCGGTCTCCC
DNA 2: TGGTGGCTACGACGGGATT
B30: AACGAUG (DNA:RNA)
RNA: B8 RNA with U26A, U27C, U28G, G30U, U31G
DNA 1: CAATCTGAATTCCGGTCTCCC
DNA 2: TGGTGGCTACGACGGGATT
B31: AGCCUCG (DNA:RNA)
RNA: B1 RNA with G25A, A27C, A28C, U30C
DNA 1: CAATCTGAATTCCGGTCTCCC
DNA 2: TGGTGGCTACGACGGGATT

Each binder was assayed against T1, RBFOX1 RRM (assay: EMSA; HiTS-Eq, 1 nM pool, 10 min; buffer printed only for the single-RNA assays: 10 mM Tris pH 7.5, 150 mM NaCl, 3.4 mM EDTA, 0.001% NP-40, 30 C). Conditions: tags: His6 N-terminal (pET28a); label: 5' 32P.
In short: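 Purified RbFox RRM, wild type or mutant, was incubated for 10 min in 50 µL with 1 nM of a 5′-radiolabelled RNA pool carrying 7 randomized nucleotides, whose flanks were annealed to DNA oligonucleotides, over a series of increasing protein concentrations. Unbound RNA was resolved on 8% native PAGE, cut out, reverse-transcribed, barcoded by PCR and sequenced on an Illumina HiSeq 2500. Relative association constants were derived from changes in read counts for each RNA species versus the control reaction and normalised to the cognate motif.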
In the case of B1, the binding signal is reported as 0.0162 KA relative to UGCAUGU. B2 was tested, and the binding signal was 0.011 KA relative to UGCAUGU. With B3 the binding signal was 0.0146 KA relative to UGCAUGU. For B4, the binding signal was 0.0136 KA relative to UGCAUGU. B5 was tested, and the binding signal was 0.0104 KA relative to UGCAUGU. For B6, the binding signal was 0.00466 KA relative to UGCAUGU. For B7, the binding signal was 0.0168 KA relative to UGCAUGU. With B8 the binding signal was 0.0103 KA relative to UGCAUGU. With B9 the binding signal was 0.000601 KA relative to UGCAUGU. In the case of B10, the binding signal is reported as 0.00816 KA relative to UGCAUGU. For B11, the binding signal was 0.0086 KA relative to UGCAUGU. B12 was tested, and the binding signal was 0.000735 KA relative to UGCAUGU. For B13, the binding signal was 0.0026 KA relative to UGCAUGU. For B14, the binding signal was 0.00859 KA relative to UGCAUGU. With B15 the binding signal was 0.00447 KA relative to UGCAUGU. For B16, the binding signal was 0.0126 KA relative to UGCAUGU. For B17, the binding signal was 0.0154 KA relative to UGCAUGU. For B18, the binding signal was 0.00571 KA relative to UGCAUGU. With B19 the binding signal was 0.01 KA relative to UGCAUGU. In the case of B20, the binding signal is reported as 0.015 KA relative to UGCAUGU. With B21 the binding signal was 0.00721 KA relative to UGCAUGU. With B22 the binding signal was 0.00156 KA relative to UGCAUGU. For B23, the binding signal was 0.0107 KA relative to UGCAUGU. In the case of B24, the binding signal is reported as 0.0111 KA relative to UGCAUGU. For B25, the binding signal was 0.00048 KA relative to UGCAUGU. With B26 the binding signal was 0.0181 KA relative to UGCAUGU. In the case of B27, the binding signal is reported as 0.013 KA relative to UGCAUGU. For B28, the binding signal was 0.000118 KA relative to UGCAUGU. With B29 the binding signal was 0.0143 KA relative to UGCAUGU. With B30 the binding signal was 0.00916 KA relative to UGCAUGU. In the case of B31, the binding signal is reported as 0.00905 KA relative to UGCAUGU.
